The supplement of paper PMC4604168 (melanoma cell lines)
This is one part of the list. Repeats are few or missing, and single values can be far off.

System: IST-MEL1
Test: cell count relative to DMSO control; melanoma cells; higher = more viable cells
Details: library dose: standard library concentration; 72 h
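Note: cells treated in 1,536-well plates, then fixed and DAPI-stained, with nuclei counted from automated high-throughput microscope images.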

| Compound | cell count |
| --- | --- |
| CN1CCN(c2ccc3nc(-c4c(N)c5c(F)cccc5[nH]c4=O)[nH]c3c2)CC1 [Dovitinib] + COc1cc2ncnc(Nc3ccc(Oc4ccccc4)cc3)c2cc1OC [SrcI1] (first compound 0.5 µM, partner dose 10 µM) | 70.7% |
| CNC(=O)c1cc(Oc2ccc(NC(=O)Nc3ccc(Cl)c(C(F)(F)F)c3)cc2)ccn1 [sorafenib] + COc1cc2ncnc(Nc3ccc(Oc4ccccc4)cc3)c2cc1OC [SrcI1] (first compound 2 µM, partner dose 10 µM) | 87.5% |
| CS(=O)(=O)CCNCc1ccc(-c2ccc3ncnc(Nc4ccc(OCc5cccc(F)c5)c(Cl)c4)c3c2)o1 [lapatinib] + COc1ccc(COc2ccc(Cc3cnc(N)nc3N)cc2OC)cc1 [GW2580] (first compound 4 µM, partner dose 5 µM) | 83.7% |
| CN1CCN(c2ccc3nc(-c4c(N)c5c(F)cccc5[nH]c4=O)[nH]c3c2)CC1 [Dovitinib] + COc1ccc(COc2ccc(Cc3cnc(N)nc3N)cc2OC)cc1 [GW2580] (first compound 0.5 µM, partner dose 5 µM) | 76.8% |
| C[C@@H](Oc1cc(-c2cnn(C3CCNCC3)c2)cnc1N)c1c(Cl)ccc(F)c1Cl [Crizotinib] + c1cc(-c2cnn3cc(-c4ccc(OCCN5CCCCC5)cc4)cnc23)ccn1 [Dorsomorphin] (first compound 1 µM, partner dose 2 µM) | 81.2% |
| C=CCNC1=C2C[C@@H](C)C[C@H](OC)[C@H](O)[C@@H](C)/C=C(\C)[C@H](OC(N)=O)[C@@H](OC)/C=C\C=C(/C)C(=O)NC(=CC1=O)C2=O [Tanespimycin] + Cc1cc([N+](=O)[O-])ccc1NS(=O)(=O)c1cc(Cl)ccc1Cl [FH535] (first compound 0.01 µM, partner dose 5 µM) | 53.3% |
| C=CCNC1=C2C[C@@H](C)C[C@H](OC)[C@H](O)[C@@H](C)/C=C(\C)[C@H](OC(N)=O)[C@@H](OC)/C=C\C=C(/C)C(=O)NC(=CC1=O)C2=O [Tanespimycin] + C[C@]1(c2nc3c(C(N)=O)cccc3[nH]2)CCCN1 [Veliparib] (first compound 0.01 µM, partner dose 7 µM) | 62% |

System: LB2518-MEL
Test: as above
Details: library dose: standard library concentration; 72 h

| Compound | cell count |
| --- | --- |
| C=CCNC1=C2C[C@@H](C)C[C@H](OC)[C@H](O)[C@@H](C)/C=C(\C)[C@H](OC(N)=O)[C@@H](OC)/C=C\C=C(/C)C(=O)NC(=CC1=O)C2=O [Tanespimycin] + NC(=O)Nc1cc(-c2cccc(F)c2)sc1C(=O)N[C@H]1CCCNC1 [AZD7762] (first compound 0.01 µM, partner dose 0.1 µM) | 39% |
| CS(=O)(=O)CCNCc1ccc(-c2ccc3ncnc(Nc4ccc(OCc5cccc(F)c5)c(Cl)c4)c3c2)o1 [lapatinib] + C=C(c1ccc(C(=O)O)cc1)c1cc2c(cc1C)C(C)(C)CCC2(C)C [Bexarotene] (first compound 4 µM, partner dose 10 µM) | 86% |
| CN1CCN(c2ccc3nc(-c4c(N)c5c(F)cccc5[nH]c4=O)[nH]c3c2)CC1 [Dovitinib] + Cn1cncc1[C@@](N)(c1ccc(Cl)cc1)c1ccc2c(c1)c(-c1cccc(Cl)c1)cc(=O)n2C [tipifarnib] (first compound 0.5 µM, partner dose 0.05 µM) | 54% |
| CS(=O)(=O)CCNCc1ccc(-c2ccc3ncnc(Nc4ccc(OCc5cccc(F)c5)c(Cl)c4)c3c2)o1 [lapatinib] + Cn1c(Nc2ccc(C(F)(F)F)cc2)nc2cc(Oc3ccnc(-c4ncc(C(F)(F)F)[nH]4)c3)ccc21 [CHIR265] (first compound 4 µM, partner dose 0.4 µM) | 37% |
| CS(=O)(=O)CCNCc1ccc(-c2ccc3ncnc(Nc4ccc(OCc5cccc(F)c5)c(Cl)c4)c3c2)o1 [lapatinib] + O=C(O)c1ccc2c(c1)nc(Nc1cccc(Cl)c1)c1ccncc12 [CX4945] (first compound 4 µM, partner dose 2 µM) | 87.3% |
| CNC(=O)c1cc(Oc2ccc(NC(=O)Nc3ccc(Cl)c(C(F)(F)F)c3)cc2)ccn1 [sorafenib] + COc1ccc2c(c1)CCC1C2CCC2(C)C(NCCCCCCN3C(=O)C=CC3=O)CCC12 [U73122] (first compound 2 µM, partner dose 2 µM) | 96.4% |
| CNC(=O)c1cc(Oc2ccc(NC(=O)Nc3ccc(Cl)c(C(F)(F)F)c3)cc2)ccn1 [sorafenib] + c1cc(-c2cnn3cc(-c4ccc(OCCN5CCCCC5)cc4)cnc23)ccn1 [Dorsomorphin] (first compound 2 µM, partner dose 2 µM) | 59.1% |
| C[C@@H](Oc1cc(-c2cnn(C3CCNCC3)c2)cnc1N)c1c(Cl)ccc(F)c1Cl [Crizotinib] + CC(C)CCN1c2nc(Nc3cc(F)c(O)c(F)c3)ncc2N(C)C(=O)C1C [BID1870] (first compound 1 µM, partner dose 1 µM) | 83.6% |
| C[C@@H](Oc1cc(-c2cnn(C3CCNCC3)c2)cnc1N)c1c(Cl)ccc(F)c1Cl [Crizotinib] + O=C(O)c1ccc2c(c1)nc(Nc1cccc(Cl)c1)c1ccncc12 [CX4945] (first compound 1 µM, partner dose 2 µM) | 86.2% |
| C[C@@H](Oc1cc(-c2cnn(C3CCNCC3)c2)cnc1N)c1c(Cl)ccc(F)c1Cl [Crizotinib] + CN(C)S(=O)(=O)c1ccc2c(c1)/C(=C/c1cc3c([nH]1)CCCC3)C(=O)N2 [SU6656] (first compound 1 µM, partner dose 2 µM) | 56% |
| CNC(=O)c1cc(Oc2ccc(NC(=O)Nc3ccc(Cl)c(C(F)(F)F)c3)cc2)ccn1 [sorafenib] + CC(=O)c1c(C)c2cnc(Nc3ccc(N4CCNCC4)cn3)nc2n(C2CCCC2)c1=O [palbociclib] (first compound 2 µM, partner dose 0.2 µM) | 59.7% |
| CNC(=O)c1cc(Oc2ccc(NC(=O)Nc3ccc(Cl)c(C(F)(F)F)c3)cc2)ccn1 [sorafenib] + C=CCn1c(=O)c2cnc(Nc3ccc(N4CCN(C)CC4)cc3)nc2n1-c1cccc(C(C)(C)O)n1 [MK1775] (first compound 2 µM, partner dose 0.1 µM) | 59% |
| CN1CCN(c2ccc3nc(-c4c(N)c5c(F)cccc5[nH]c4=O)[nH]c3c2)CC1 [Dovitinib] + CN(NC(=O)CC(=O)NN(C)C(=S)c1ccccc1)C(=S)c1ccccc1 [STA4783] (first compound 0.5 µM, partner dose 0.03 µM) | 26% |
| C[C@@H](Oc1cc(-c2cnn(C3CCNCC3)c2)cnc1N)c1c(Cl)ccc(F)c1Cl [Crizotinib] + Clc1ccc(Nc2nnc(Cc3ccncc3)c3ccccc23)cc1 [vatalanib] (first compound 1 µM, partner dose 10 µM) | 75.6% |
| C=CCNC1=C2C[C@@H](C)C[C@H](OC)[C@H](O)[C@@H](C)/C=C(\C)[C@H](OC(N)=O)[C@@H](OC)/C=C\C=C(/C)C(=O)NC(=CC1=O)C2=O [Tanespimycin] + CN(NC(=O)CC(=O)NN(C)C(=S)c1ccccc1)C(=S)c1ccccc1 [STA4783] (first compound 0.01 µM, partner dose 0.03 µM) | 12.6% |
| CS(=O)(=O)CCNCc1ccc(-c2ccc3ncnc(Nc4ccc(OCc5cccc(F)c5)c(Cl)c4)c3c2)o1 [lapatinib] + O=C(O)C(=O)Nc1sc2c(c1C(=O)O)CCNC2 [TCS401] (first compound 4 µM, partner dose 8.33333 µM) | 109% |
| CN1CCN(c2ccc3nc(-c4c(N)c5c(F)cccc5[nH]c4=O)[nH]c3c2)CC1 [Dovitinib] + CC1(C)NC(=O)N(c2ccc([N+](=O)[O-])c(C(F)(F)F)c2)C1=O [nilutamide] (first compound 0.5 µM, partner dose 5 µM) | 58.9% |
| CS(=O)(=O)CCNCc1ccc(-c2ccc3ncnc(Nc4ccc(OCc5cccc(F)c5)c(Cl)c4)c3c2)o1 [lapatinib] + C[C@@H]1CCN(C(=O)CC#N)C[C@@H]1N(C)c1ncnc2[nH]ccc12 [CP690550] (first compound 4 µM, partner dose 5 µM) | 106% |
| C[C@@H](Oc1cc(-c2cnn(C3CCNCC3)c2)cnc1N)c1c(Cl)ccc(F)c1Cl [Crizotinib] + C[C@@H]1CCN(C(=O)CC#N)C[C@@H]1N(C)c1ncnc2[nH]ccc12 [CP690550] (first compound 1 µM, partner dose 5 µM) | 81.5% |
| C[C@@H](Oc1cc(-c2cnn(C3CCNCC3)c2)cnc1N)c1c(Cl)ccc(F)c1Cl [Crizotinib] + NC(=O)Nc1cc(-c2cccc(F)c2)sc1C(=O)N[C@H]1CCCNC1 [AZD7762] (first compound 1 µM, partner dose 0.1 µM) | 65.5% |
| CN1CCN(c2ccc3nc(-c4c(N)c5c(F)cccc5[nH]c4=O)[nH]c3c2)CC1 [Dovitinib] + N#Cc1c(O)c2c(-c3ccc(-c4ccccc4O)cc3)csc2[nH]c1=O [A769662] (first compound 0.5 µM, partner dose 10 µM) | 51.7% |
| CN1CCN(c2ccc3nc(-c4c(N)c5c(F)cccc5[nH]c4=O)[nH]c3c2)CC1 [Dovitinib] + C#Cc1cccc(Nc2ncnc3cc(OCCOC)c(OCCOC)cc23)c1 [erlotinib] (first compound 0.5 µM, partner dose 4 µM) | 53.9% |
